This note sets out measurements from the RNAGym collection of RNA variant scans (doi:10.7554/elife.90254).

Read counts are not given, so values of variants with three or more changes are uncertain.

To fix the notation:
B1: LINE1-full (parent)
chain: UACGUAGGUGGUUUUCCCCUGAUAGUGCUAAGGGGGCCUGGAAGUUUGGACUGGGCAGAGCUCAACACAGCGUGGCAAAGUGGCUGUGGCUAGACUGCCUCUCUGGAUUCCUCGUCACUCAGCAGGGCAUCUCUGAGAGAAAUGCC

The data set covers variants of B1. In words: self-cleavage, relative activity (ratio to wild type); higher = more cleavage; in vitro, sequencing; the parent is a self-cleaving ribozyme.
With C17U U73G C90A C103A, the self-cleavage worked out at 0.08.

Take U15C U29C A30C A50C G106U G126A U134A: the self-cleavage worked out at 1.16.

With U15C A94G U102A, the self-cleavage was found to be 0.2.

U20A A43U U46A: the self-cleavage worked out at 1.38. In the case of C19U A69U U102A, the self-cleavage was found to be 0.13.

As for C19U G25A A67G, the self-cleavage came to 0.31. The value for C19U U39A U104C A138G was 1.75; that for U15C U85A U112C was 0. With U15C U29C A77G, the self-cleavage came to 1.77. As to C18A U39C A57G, the self-cleavage came to 0.3. Consider C17A U29C U85A U100A, for which the self-cleavage worked out at 0.14. The value for C17A U96C G114A was 0.08; that for U15C U45C A59G G70U A117G U130C was 0; that for C19U G34A A129G A141G was 1.21. The result for U15C U46C U134A reads 1.12; that for C17U G35A C133A, 1.05. The value for U15C C28U G58A A67G U134C was 0.

For the variant U15C A65G C98U A117U, the self-cleavage came out at 0. The value for C19U A50G A121G was 0.95; that for C16U A43U G125C was 1.02; that for C19A U85C U115C was 0.2.

Regarding C16G U62C U87C, the self-cleavage is 0.1. The value for U15C A124G A142G was 1.11; that for C16U U102A A136G was 0.8; that for C17U U39C U81G was 0.77. The value for U15C U39C A50G U52A was 2.16; that for U15C U39C U85C was 0; that for C19U U23C A64C A79G C98U A138G was 0.06. The value for U15C U46G U104C U143A was 1.67.

For the variant U15C G32A A43G A67G A79U G126U, the self-cleavage came to 1.22. The value for C19G U46C U104A was 0.89; that for C17U U81C U104C was 1.84; that for C17U U104C A141G was 1.57. The result for U15C G53U A129G reads 1.95; that for U15C U52A A65G A92U C111U, 0.03. The value for U15C U45C G54A was 0.33.

Regarding C19U A42U U108C, the self-cleavage came out at 2.38.

Take U15C C17U G33U A50G A79G U115C: the self-cleavage worked out at 0. In the case of U15C U52A U62C U81A, the self-cleavage was 0.09.

In the case of U15C G35A A92G U119C, the self-cleavage was 0.04.

For C16A U100C A129G, the self-cleavage turned out to be 1.46. U15C U85A A121U: the self-cleavage was 0.27. The value for U15C U85A A121G was 0; that for C17U G36A U73A A121G was 1.51. The value for C17U A64U A94G was 0.14; that for C19A U29C U134C was 0.65. The result for C18U A30U U85C C101U C120U reads 0.15; that for C17U A64G A117G G122C, 0; that for U15C C101U A141G C146G, 1.1. C18U U47C C131U C146A: the self-cleavage was 0.86. The value for U15C U87C A138U was 0.1; that for C16U U87C U119C was 0.22; that for U15C C19U U115C was 1.57. On to C19U U96C A136G, for which the self-cleavage came out at 0.11.

In the case of C16U A31G A50G G93A U100A, the self-cleavage is 0.

Turning to U15C U73A U104C U132C, the self-cleavage stood at 2.77. The value for C19U U85C U87G G88U A94G was 0.15; that for U15C G86A U115C was 0. The value for U20A A22G G49U A69G U81A C118U G127A was 0.23; that for U15C U26C U45C A65U C99A was 0.11.

As for U15C U29A A94G A138G, the self-cleavage came out at 0. The result for U20A A24G U112A A124G reads 1.89. The value for U15C U26C A43G U81A was 1.05; that for U15C A64G A69G was 0; that for U15C A79G U87C G126A A129G A136G was 0. For the variant U15C U39C C98G U115C, the self-cleavage amounted to 0.12.

U15C G32U A79G: the self-cleavage was 1.18.

For the variant U15G U52A C131A, the self-cleavage was 0.65.

In the case of U15C U81C A117U A121G, the self-cleavage is 2.37. The value for U15C A117G A138U was 0.81. Turning to U15C A79G U81A, the self-cleavage amounted to 2.27. Regarding U15C U119C A124G, the self-cleavage turned out to be 2.02. The result for C19U U115C A142G reads 0.97.

U15C U104C U109C: the self-cleavage was determined as 1.62. The result for C16U A50G A136G reads 0.32. The value for C18A U47A U87A U119A was 0.1; that for C16A A43C U102C was 0. As for U15C U102C U143C, the self-cleavage came to 0.59. The value for U15C A121G A138G was 2.48. The value for C17U U45A U134A was 1.03. With C16U U46C U62C A77U A94C, the self-cleavage is 0. In the case of C19U A22G U39C, the self-cleavage worked out at 0.57.

Take C17U U20C A92G: the self-cleavage stood at 0. The result for U15C A78U A94G A142G reads 0.18; that for C18U A57G U87C, 0.3; that for U15C G114A A140G, 1.33.

On to U15C U20A A140G, for which the self-cleavage worked out at 0.69. The value for C16U U26C U102A A121C A136G was 1.84. The result for C19U U39A U130C reads 2.87; that for U15C A67G A69U A129G U143C, 0. Regarding U15C A59U U73A A92G, the self-cleavage came out at 0.05. The result for U15C U62C A136G A142G reads 0; that for C16U U23A G126A, 1.25. For U15C G36A A79G U81A U87C, the self-cleavage came out at 0.23. The value for C19U A77U A129U was 0.63; that for C19U G55A A69G was 0.04. As to C19G U119C U132C, the self-cleavage amounted to 1.43. The result for C19U A94G U96C reads 0; that for U15C U85A U96C, 0.17. The value for C19U A43G A94U U115G was 0.08; that for U15C A57U C99U U112C A136U was 0. The value for C19A A79G U87G C90U A140G was 0.13; that for U15C U85A U100C was 0; that for C16U U23A U108C was 1.53. In the case of U15C C71U A94U A138G, the self-cleavage came out at 0.1. The value for U15C A64U U100C U134A was 0.77; that for C18U A22G U26A A136G was 0.47; that for C17U A31U C51U was 0.88.

In the case of U15C U39A C120U U132C, the self-cleavage was 2.33. The result for C16U U26C U134C reads 0; that for U15C U20C G58U U87C, 0.09. The value for U15C U73G U109C A129G was 0.42; that for C19U G53A U81C U91C was 0.27.

Consider U15C U47A A69U, for which the self-cleavage amounted to 0.1. The value for U15C U85C U104C was 1.15; that for U15C G88C U109A was 0.2.

As for U15C U20C A141G, the self-cleavage amounted to 1.55. The value for U15C U29C A136C was 0.47; that for C19U A22U U26C U62C U115C U119A was 0.3. Turning to C18A G48A A65U A142G, the self-cleavage came to 0.14.

Regarding C18U A42G A138G, the self-cleavage was 0.62. The value for C18A A31G U62C A138G was 0.1. The result for U20A A22G U134G A140G reads 0.63; that for U15G A69G A117C, 0; that for U15C C18U A59G U115A, 0.29. The value for C16A U39C A50G was 1.23; that for U15C U39C A67G was 0.31. For the variant C18U A94G U109C, the self-cleavage is 0.35. C19U G74A G88C U108C: the self-cleavage stood at 0.08. The result for C18G U26C U108C reads 0.77. The result for U15C C37U A42G reads 1.63. The value for C19U A78U U104C U115A was 2.55. Turning to C18A A50G U109C, the self-cleavage came to 0. The result for C18U C118G A121U reads 1.26. The value for C19U A94U C99A A129G was 0.11; that for C19U A117C A136U was 1.64; that for C19U C38A A42G U81C A140G was 1.47. The value for U15C A64G U81A was 0.5; that for U15C U87C G93U A107G was 0.17. Consider U15C A67G U81C A140G, for which the self-cleavage worked out at 0.

U15C G25A A42G U115C: the self-cleavage was 0.78.

Turning to C19U C99U U132A, the self-cleavage worked out at 0.48. The result for C16U A117U A124G reads 1.33; that for U15C A69U U115C, 0.18; that for C16U A121G G135A, 0.69. The result for U15C U85C A136G reads 0.57; that for C16U A77U G89A U108C A142G, 0.05; that for C16U U62A U102C U104A, 0.04. The value for U15C U20C A77G U112C was 2.53. Take U15C G54A U132C: the self-cleavage was determined as 0.19. The result for U15C U52C A67U G75A reads 0.18; that for U15C U20A G40A U96A, 0; that for C19U A43U A141G, 0.96. The value for U15C U45A A129U was 1.24. In the case of U15C C90U C99U, the self-cleavage was 0.05. The value for C18U U39C G55U was 0.21. The result for C17U U102C U130C reads 2.51. The result for U15G U46C A117G reads 0; that for U15C G36C U85C U108C C123U, 0.32. In the case of U20A A43G U100C G126A, the self-cleavage is 2.86.

With U15C U102C U109C, the self-cleavage is 1.2. Consider C19U U47A A124U, for which the self-cleavage is 0.7. The result for U15C U62A A92U reads 0.13; that for C19G A117U U134G, 0.64; that for C19A A92U A107G C128U, 0.38. The value for U15G A78G U96C A124G was 0. The value for U15C U39A A142G was 1.11.
